Measured values published in PubChem BioAssay AID488969 (Vanderbilt High Throughput Screening Facility, 2010).
The full ranking holds about 110,000 compounds; the median of “z-score” is about -0.1, and the highest 2% start at about 2. The list shows a part of the results. Active and inactive are the calls of the source.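 The calls were made as follows: active = z-score in the third read window above 3 or below -3; inactive = the rest.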

Biological target: Metabotropic glutamate receptor 8 (Rattus norvegicus) (UniProt P70579)
Sequence of UniProt P70579 (P70579 whole entry, looked up): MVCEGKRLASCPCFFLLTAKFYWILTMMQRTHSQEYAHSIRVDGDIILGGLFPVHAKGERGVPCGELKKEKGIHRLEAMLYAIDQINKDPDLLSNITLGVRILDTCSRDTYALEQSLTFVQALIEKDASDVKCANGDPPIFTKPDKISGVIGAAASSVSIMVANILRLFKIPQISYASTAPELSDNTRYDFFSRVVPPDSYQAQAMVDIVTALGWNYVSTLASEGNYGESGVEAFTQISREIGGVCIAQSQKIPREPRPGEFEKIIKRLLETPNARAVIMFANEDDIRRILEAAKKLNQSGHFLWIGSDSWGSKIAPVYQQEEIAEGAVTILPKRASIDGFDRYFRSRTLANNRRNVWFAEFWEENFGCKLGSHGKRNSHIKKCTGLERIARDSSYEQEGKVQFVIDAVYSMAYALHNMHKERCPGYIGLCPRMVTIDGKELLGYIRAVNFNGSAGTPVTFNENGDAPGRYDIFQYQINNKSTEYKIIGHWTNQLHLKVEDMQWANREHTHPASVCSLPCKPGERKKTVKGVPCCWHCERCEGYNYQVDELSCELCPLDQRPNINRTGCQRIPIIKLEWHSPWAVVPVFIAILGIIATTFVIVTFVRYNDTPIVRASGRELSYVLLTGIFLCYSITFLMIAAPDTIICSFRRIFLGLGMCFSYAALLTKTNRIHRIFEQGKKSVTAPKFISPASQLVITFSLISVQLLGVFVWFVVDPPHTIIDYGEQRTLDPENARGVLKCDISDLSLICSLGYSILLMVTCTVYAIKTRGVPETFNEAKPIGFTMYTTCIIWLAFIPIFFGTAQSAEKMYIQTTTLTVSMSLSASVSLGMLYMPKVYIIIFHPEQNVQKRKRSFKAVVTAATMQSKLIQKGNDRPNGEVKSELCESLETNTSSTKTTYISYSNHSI
Assay: mGluR8 Gi/Go-coupled signaling modulation – cell-based, rat, thallium flux, HTS, primary screen (AID 488969)
Settings: HEK293 rat mGluR8, GIRK (G protein-gated inwardly rectifying potassium channel) thallium flux, FluoZin2; at 10 µM; stronger effect = higher value; submaximal glutamate (EC20) added with thallium

| SMILES | z-score |
| --- | --- |
| CCc1nnc(NC(=O)C2CC(=O)N(Cc3ccco3)C2)s1 (stereo not given) | 0.998 |
| Cc1cccc(NC(=O)c2sc(NC(=O)c3ccco3)c(C#N)c2C)c1C | -0.624 |
| O=C(c1ccco1)N1CCN(C(=O)c2cc(-c3ccccn3)nc3ccc(Cl)cc23)CC1 | -0.208 |
| C=CCN(C(=O)Nc1ccc2oc(C)nc2c1)c1ccccc1 | 0.00235 |
| CC1CCN(C(=O)CSc2nncn2-c2ccccn2)CC1 | -0.0486 |
| CC(C)Oc1cccc(-c2cc(C(=O)N3CCN(S(C)(=O)=O)CC3)c3ccccc3n2)c1 | -0.532 |
| CCOc1ccc(NC(=S)NC(=O)/C=C/c2ccc(OC)c(OC)c2)c([N+](=O)[O-])c1 | -0.602 |
| CC1(C)CC(=O)C=C(NCc2ccncc2)C1 | 0.166 |
| Cc1c(Cl)cccc1N1C(=O)c2ccccc2C1=O | 0.51 |
| O=C(O)CNC(=O)/C(=C/c1cccc([N+](=O)[O-])c1)NC(=O)c1ccco1 | 0.263 |
| CCCc1nc2n[nH]c(N)c2c2c1CCCC2 | 0.143 |
| CCC(CC)C(=O)N1CCCC(c2nc(-c3cccs3)no2)C1 (stereo not given) | -0.0784 |
| O=C(CSCc1ccccc1Cl)Nc1c[nH]c(=O)[nH]c1=O | 0.0124 |
| COc1cccc(C2CC(c3ccccc3OC)n3ncnc3N2)c1 (stereo not given) | 0.812 |
| Cc1cnc(NC(=O)c2c(O)c3cccc4c3n(c2=O)CCC4)s1 | -0.425 |
| COc1ccc(/C=N/NS(=O)(=O)c2ccccc2)cc1OS(=O)(=O)c1ccc(C)cc1 | -1.1 |
| CC(=O)c1c(C)[nH]c(C(=O)CSc2nnc(-c3ccccc3)n2Cc2ccc3c(c2)OCO3)c1C | -0.421 |
| CCOC(=O)c1c(NC(=O)c2ccco2)n(C2CCCCC2)c2nc3ccccc3nc12 | -0.604 |
| CN(CCC#N)C(=O)COC(=O)c1ccc(CNS(=O)(=O)c2ccc(F)c(Cl)c2)cc1 | 0.306 |
| COc1cc(-c2cc(-c3ccccc3)nc(SCC(=O)Nc3nccs3)c2C#N)cc(OC)c1OC | -0.105 |
| Cc1ccc(-c2csc3ncn(CC(=O)N4CCOCC4)c(=O)c23)cc1C | -0.43 |
| CCS(=O)(=O)c1ccc2c(c1)N(S(C)(=O)=O)CC(C(=O)NCCOC)O2 (stereo not given) | -0.171 |
| CC1CCC2(CC1)NC(=S)N(c1ccccc1)N2 (stereo not given) | 0.323 |
| CNc1cc(C(F)(F)F)nc(-c2ccccn2)n1 | 0.0033 |
| COC(=O)c1[nH]c(=O)c2ccccc2c1OCc1ccccc1 | -0.0885 |
| COc1ccc(CSCCN)cc1Cl | 1.4 |
| CCC(=O)N1CCc2cc(S(=O)(=O)N(CC)c3cccc(C)c3)ccc21 | -0.46 |
| O=C(/C=C/c1ccccc1)NC1CCS(=O)(=O)C1 (stereo not given) | -0.123 |

| SMILES | z-score |
| --- | --- |
| CCOC(=O)c1ccc(N2C(=O)CC(N(C)Cc3ccccc3)C2=O)cc1 (stereo not given) | -0.0145 |
| Clc1cccc(CSc2ncn(-c3ccccc3)n2)c1 | -0.0723 |
| O=C1C2C(C(=O)N1/N=C/c1cc([N+](=O)[O-])ccc1O)C1C=CC2C12CC2 (stereo not given) | 0.212 |
| CCn1nc(C(=O)OCC(=O)c2c[nH]c3ccccc23)c2ccccc2c1=O | active: -4.1 |
| CCN(CC)CCN1C(=O)c2ccccc2NC1c1ccc(C)cc1 (stereo not given) | -0.367 |
| O=C(Cn1cnc2c(nnn2Cc2ccc(F)cc2)c1=O)N1CCCCC1 | 0.251 |
| CC(C)(C)c1ccc(C(=O)Nc2cnccn2)cc1 | -0.546 |
| CCOC(=O)c1cnc2c(C#N)c(C)nn2c1-c1ccccc1 | 0.439 |
| O=C(COc1ccccc1)N1CCN(c2ncnc3c2cnn3-c2ccccc2)CC1 | -0.137 |
| CC(Oc1ccc(Cl)cc1Cl)c1nc(-c2ccc(NC(=O)c3ccco3)cc2)no1 (stereo not given) | -0.0426 |
| CC(=O)Nc1cc(N=Cc2ccc(O)cc2O)c(Cl)cc1Cl | 0.104 |
| COC(=O)c1[nH]c2cccc(OC)c2c1NC(=O)CCN1CCN(c2ccccc2OC)CC1 | 0.146 |
| CCCCCn1c(Sc2ccccc2)nc2c1c(=O)[nH]c(=O)n2C | -0.615 |
| O=[N+]([O-])c1ccc(Oc2cccc(F)c2)c2ccncc12 | -0.15 |
| CCN(CC)C(=O)c1sc(NC(=O)c2ccncc2)c(C(=O)OC)c1C | 0.216 |
| COc1ccc(-n2c(Cc3cccn3C)nnc2SCC(=O)Nc2cccc(OC)c2)cc1 | -0.439 |
| Cc1ccc(C(=O)Oc2oc(-c3ccco3)nc2C=Nc2ccc(Cl)cc2)cc1 | -0.0764 |
| O=C(Nc1cccc(S(=O)(=O)N2CCCCCC2)c1)c1ccc2ccccc2n1 | -0.389 |
| COc1ccccc1NC(=O)N1CCCC1C(=O)Nc1nnc(C(C)C)s1 (stereo not given) | -1.03 |
| OC(COCc1cccs1)CN1CCN(c2cccc(Cl)c2)CC1 (stereo not given) | -0.233 |
| Brc1cccc(-c2nnco2)c1 | 0.176 |
| C=CCNC(=O)NS(=O)(=O)c1ccc(C)cc1 | -0.483 |
| O=C(OCc1ccc([N+](=O)[O-])cc1)C1CC(=O)N(c2ccccc2)C1 (stereo not given) | -0.475 |
| CCN(CC)c1ccc(NC(=O)CSc2nnc(N)s2)cc1C | -0.622 |
| CCC(=O)N/C(=N/c1nc(C)cc(C)n1)Nc1ccc(OC)cc1 | -1.29 |
| O=C(NCCSCc1ccco1)Nc1ccccc1 | 0.648 |
| COc1ccc(OC2OC3COC(c4ccco4)OC3C(O)C2NC(C)=O)cc1 (stereo not given) | -0.0825 |
